The results in this text go back to PubChem BioAssay AID488969 (Vanderbilt High Throughput Screening Facility, 2010).

In all, about 110,000 compounds were measured (“z-score”: median about -0.1, highest 2% from about 2 on). The list shows a part of the results. Activity calls are given as the source filed them.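 How the source made its calls: active means z-score in the third read window above 3 or below -3; inactive means the rest.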

In this experiment the target is Metabotropic glutamate receptor 8 (Rattus norvegicus) (UniProt P70579). The experiment in a line: mGluR8 Gi/Go-coupled signaling modulation – cell-based, rat, thallium flux, HTS, primary screen (AID 488969). The note with it: HEK293 rat mGluR8, GIRK (G protein-gated inwardly rectifying potassium channel) thallium flux, FluoZin2; at 10 µM; stronger effect = higher value; submaximal glutamate (EC20) added with thallium.
UniProt P70579, sequence (P70579 whole entry, looked up): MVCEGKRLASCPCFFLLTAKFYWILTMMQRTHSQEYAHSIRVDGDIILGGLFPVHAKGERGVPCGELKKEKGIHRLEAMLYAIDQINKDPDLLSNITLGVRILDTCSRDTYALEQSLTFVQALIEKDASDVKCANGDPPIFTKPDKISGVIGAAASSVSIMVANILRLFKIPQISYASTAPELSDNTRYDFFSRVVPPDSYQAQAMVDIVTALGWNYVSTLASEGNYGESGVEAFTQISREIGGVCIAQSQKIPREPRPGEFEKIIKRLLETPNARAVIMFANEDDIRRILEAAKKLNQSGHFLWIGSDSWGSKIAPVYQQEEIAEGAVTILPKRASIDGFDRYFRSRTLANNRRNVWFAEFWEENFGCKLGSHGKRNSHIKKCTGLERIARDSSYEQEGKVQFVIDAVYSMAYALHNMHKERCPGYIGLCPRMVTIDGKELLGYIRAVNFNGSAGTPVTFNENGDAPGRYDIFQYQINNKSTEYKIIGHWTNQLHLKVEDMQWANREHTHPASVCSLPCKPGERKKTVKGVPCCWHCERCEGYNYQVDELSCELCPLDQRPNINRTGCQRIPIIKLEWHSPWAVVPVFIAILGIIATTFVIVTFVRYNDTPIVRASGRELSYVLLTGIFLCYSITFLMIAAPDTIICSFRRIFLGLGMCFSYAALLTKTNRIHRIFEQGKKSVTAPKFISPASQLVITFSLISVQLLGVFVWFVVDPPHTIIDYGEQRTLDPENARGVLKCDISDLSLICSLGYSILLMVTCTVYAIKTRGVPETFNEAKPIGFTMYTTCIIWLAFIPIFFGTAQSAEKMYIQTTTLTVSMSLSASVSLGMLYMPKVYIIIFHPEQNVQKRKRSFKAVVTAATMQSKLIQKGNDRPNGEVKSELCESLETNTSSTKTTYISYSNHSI
Consider `CC(C)NCc1c(O)c(Br)cc2oc3c(c12)CCCC3`, for which the z-score was -2.03.

As to `Cc1ccc(N=C/C(C(=O)C(F)(F)F)=C(\O)c2cccs2)cc1`, the z-score was -0.28.

Regarding `C=CCn1c(SCc2cccc(C#N)c2)nnc1-c1ccccc1O`, the z-score turned out to be 0.378.

The compound `O=C(CCc1ccc(S(=O)(=O)N2CCOCC2)cc1)Nc1ccc2ccccc2c1` registered a z-score of -0.0429.

With `O=C(Cc1ccc(Br)cc1)N1CCCCCC1`, the z-score was found to be 0.133.

`O=C1c2ccccc2CCC12N=NCC2c1ccccc1` (stereo unspecified) displayed a z-score of -0.0723.

Take `C=CCn1c(SCC(=O)c2cc(C)n(CC3CCCO3)c2C)nnc1-c1ccccc1` (stereo unspecified): the z-score was -0.292.

`CC1(c2ccncc2)Nc2ccccc2-c2nc3ccccc3n21` (stereo unspecified): the z-score was -0.0156.

In the case of `CC1CCCN(S(=O)(=O)c2coc(C(N)=O)c2)C1` (stereo unspecified), the z-score came to 0.247.

In turn, `CC(/C=C/c1ccccc1)=N/NC(=O)c1cc([N+](=O)[O-])cc([N+](=O)[O-])c1` gave a z-score of 1.41.

As to `CCOC(=O)c1cnc(-n2nc(C)cc2C)nc1Nc1ccc(OC)cc1`, the z-score was -0.0946.

The compound `CSCCC(C(=O)N1CC2(C)CC1CC(C)(C)C2)N1C(=O)c2ccccc2C1=O` (stereo unspecified) yielded a z-score of -0.567.

Turning to `O=C1c2ccccc2NC(c2cn[nH]c2-c2ccccc2)N1O` (stereo unspecified), the z-score is -0.0761.

Turning to `Cc1ccc(-c2nc(N)s[n+]2-c2ccccc2)cc1`, the z-score is -0.115.

In the case of `CCOc1cc(C2CC(=O)NC3=C2C(=O)C(C(=O)OC)C(C)C3)cc(Br)c1O` (stereo unspecified), the z-score came to 0.919.

Turning to `CCc1nc(SCC(=O)Nc2nnc(CC)s2)c2c(C)c(C)sc2n1`, the z-score was active: 8.71.

`O=C(NCC1CCCO1)c1cccc(NC(=O)c2ccco2)c1` (stereo unspecified) gave a z-score of 0.651.

As to `O=C(NCc1ccco1)C(C(=O)c1ccc(F)cc1)n1ccccc1=O` (stereo unspecified), the z-score was -0.255.

For `COc1ccc(C2CC(C(F)(F)F)n3ncc(C(=O)Nc4cccc(O)c4)c3N2)cc1OC` (stereo unspecified), the z-score was found to be 0.161.

As for `COc1ccc(C(=O)N2CCN(C(=O)CC(C)C)CC2)cc1OC`, the z-score was -0.432.

`Nc1nonc1NC(=O)CSc1ncccc1C(=O)O` returned a z-score of -0.104.

`O=C(CCCC(=O)N(c1ccc2c(c1)OCCO2)C(C(=O)NC1CCCCC1)c1ccc(Cl)cc1)Nc1ccccn1` (stereo unspecified) displayed a z-score of -1.41.

`CCN(Cc1ccccc1)Cc1c(C)[nH]c2c(C)c(C)ccc2c1=O`: the z-score was -0.4.

For `CCOC(=O)C1=C(C)NC2=C(C(=O)C(C(=O)OCC)C(c3cccc(OC)c3)C2)C1c1ccccn1` (stereo unspecified), the z-score is active: -3.81.

In turn, `COc1c[nH]n(C2CCCCC2)c(=O)c1=O` yielded a z-score of -0.0425.

As for `CCOc1cc(C(=O)OCc2ccc(C(=O)OC)o2)cc(Br)c1OC`, the z-score was found to be 1.86.

Compound `Cc1noc(-c2ccccc2OC(=O)c2ccccc2)n1` came in with a z-score of -1.

`COc1cccc(OCC(O)CN2C(C)CCCC2C)c1` (stereo unspecified) displayed a z-score of 0.438.

Turning to `Cc1ccc(-c2nc(SCC(N)=O)c(C#N)c3c2CCCC3)cc1`, the z-score was -0.427.

`Cc1nc(C(=O)Nc2ccccc2Cl)cc2c1[nH]c1ccccc12` came in with a z-score of -0.494.

`Cc1ccc(C(=O)N2CCN(C(=O)N3CCOCC3)CC2)cc1` yielded a z-score of -0.213.

For `Cc1cc(C)nc(NC2=NCC(=O)N2c2ccc(Cl)cc2)n1`, the z-score amounted to 0.381.

`CC1=C(C(=O)N2CCOCC2)C(c2ccccc2F)C2=C(CCCC2=O)N1` (stereo unspecified) displayed a z-score of -0.0832.

`O=C(CSCC(=O)NC1CC1)Nc1ccccc1` came in with a z-score of 0.615.

Consider `O=C(CNC(=O)c1ccco1)OCC(=O)c1cccc2ccccc12`, for which the z-score is 1.54.

Regarding `c1cncc(-c2noc(-c3cccc4ccccc34)n2)c1`, the z-score came out at 0.429.

In turn, `O=C(/C=C/c1ccc(S(=O)(=O)N2CCOCC2)cc1)NC(=S)Nc1ccc(N2CCOCC2)cc1` registered a z-score of -0.176.

Compound `COC(=O)c1ccc(C(=O)OC)c(NC(=O)CSCc2ccc(Br)cc2)c1` had a z-score of 0.742.

Regarding `COC(=O)C1(O)CC(C(C)C)=NN1C(=O)c1ccc(Cl)cc1` (stereo unspecified), the z-score turned out to be 0.417.

On to `CCC1(C)Cc2c(sc3c2c(=O)n(C)c2nnc(SCC(=O)c4ccc(Cl)cc4)n32)CO1` (stereo unspecified), for which the z-score worked out at 0.0466.

The compound `N#CC1=C(N)N(c2ccc(F)cc2)C(=O)C1` had a z-score of -0.105.

As to `CN(C)S(=O)(=O)c1ccc(Oc2ccccc2)cc1`, the z-score is -0.0436.

Take `N#Cc1nc(-c2ccccc2F)oc1NC1CCCCC1`: the z-score was 0.183.

As to `O=C(c1cccc(F)c1)N1CCN=C1SCc1cccnc1`, the z-score worked out at 0.324.

For the compound `CS(=O)(=O)N(Cc1ccccc1)c1ccccc1C(=O)N1CCN(c2ccccc2)CC1`, the z-score was -0.198.

As for `Cc1cccc(C)c1-n1c(C)cc(/C=C2\C(=O)NN(c3ccccc3)C2=O)c1C`, the z-score is -0.192.

`C=CCN1C(=O)C(CC(=O)Nc2ccccc2)SC1=Nc1ccc(S(N)(=O)=O)cc1` (stereo unspecified) gave a z-score of -0.289.

On to `CCCc1oc(C(=O)O)cc1CN1CCOCC1`, for which the z-score was -0.0388.

Consider `CCCCNC(=S)NNC(=O)c1ccoc1C`, for which the z-score is -0.0127.

The compound `COc1ccc(CCN2C(=O)CC(N3CCN(c4ccccn4)CC3)C2=O)cc1OC` (stereo unspecified) registered a z-score of -0.121.

The compound `O=C(NNS(=O)(=O)c1ccc(F)cc1F)C1Cc2c(ccc3ccccc23)O1` (stereo unspecified) showed a z-score of 0.0656.

Consider `CCC1CCCCN1CCn1c(=S)[nH]c2cc(OC)c(OC)cc2c1=O` (stereo unspecified), for which the z-score was determined as 2.07.

Take `CN1/C(=C/C(=O)c2ccc(Cl)cc2)Sc2cc3c(cc21)OCO3`: the z-score is -1.93.

On to `CCOC(=O)C(C)n1nc(/C=C/c2ccccc2)ccc1=O` (stereo unspecified), for which the z-score was -0.174.

The compound `COc1ccc(CCNC(=O)C(=O)NCc2ccccc2)cc1OC` came in with a z-score of -0.0128.

The compound `CCOc1ccc(NC(=O)c2sc(N3CCOCC3)nc2-c2ccccc2)cc1` yielded a z-score of 0.00027.

`Cc1cc(C)n2nc(SCC(=O)N3CCc4ccccc43)nc2n1` displayed a z-score of 0.255.

The compound `COc1ccc(/C=N/NC2=NCCCCC2)cc1` came in with a z-score of -0.00887.

Regarding `Cc1noc(C)c1C(=O)Nc1nc(C23CC4CC(CC(C4)C2)C3)cs1`, the z-score was -0.213.

For the compound `COc1ccccc1OCC(=O)Nc1cc(Cl)ccc1Oc1ccccc1`, the z-score was determined as 1.03.

Regarding `Cc1cccc(C(=O)NC(=S)NNC(=O)Cc2ccccc2)c1`, the z-score amounted to 1.8.

In turn, `Cc1ccnc(SCC(=O)O)n1` returned a z-score of 0.319.

As to `CC(=O)NC(Cc1cccc(C)c1)C(=O)NC1CCN(C(=O)c2ccc([N+](=O)[O-])cc2)CC1` (stereo unspecified), the z-score stood at 0.194.

In turn, `CC(C)(C)n1nnnc1C(c1cccc(C#N)c1)N1CCCc2ccccc21` (stereo unspecified) showed a z-score of -0.782.

In the case of `CCn1c(=O)c(=O)[nH]c2cc(C(=O)N3CCN(c4ccccc4F)CC3)ccc21`, the z-score was -1.25.

With `COc1ccc(N2CCN(C(=O)COc3ccc(Cl)cc3Cl)CC2)cc1`, the z-score was found to be 0.0278.

`COc1ccc(OCCN2C(=O)NC(C)(c3ccc(C)cc3)C2=O)cc1` (stereo unspecified) showed a z-score of -0.361.

Consider `COc1ccc(C2C(C(=O)c3cccs3)=C(O)C(=O)N2c2nncs2)cc1` (stereo unspecified), for which the z-score is -0.0675.

The compound `Cc1cccc(N2C(=O)c3cccnc3C2=O)c1` yielded a z-score of -0.144.

`CC(C)(C)OC(=O)NC(CCCCNC=O)C(=O)O` (stereo unspecified) displayed a z-score of 0.0405.

Regarding `O=C1CC(c2ccc(Cl)c([N+](=O)[O-])c2)c2ccc3ccccc3c2N1` (stereo unspecified), the z-score is -0.142.

The compound `COc1cccc(C(=O)CSc2nnc(CNc3nc(-c4ccccc4)cs3)n2C)c1` displayed a z-score of -0.0511.

For `CCN1/C(=C\C(C)=O)Sc2ccc(OC)cc21`, the z-score was 0.974.

With `COC(=O)c1c(NC(C)=O)sc2c1CCCC2`, the z-score was -0.117.

`O=C(NCCN1CCOCC1)c1ccc2c(c1)N(Cc1ccccc1)CCS2` showed a z-score of -1.4.

As for `CCc1ccc(OCCNC(=O)c2ccccc2SCc2ccccc2)cc1`, the z-score is -0.139.

Consider `CC1(C)CC(=O)c2sc(NC(=O)c3ccco3)nc2C1`, for which the z-score is -0.147.

In the case of `COn1c(SCc2cccnc2)nc2ccccc2c1=O`, the z-score was -0.128.

`O=C(O)CC(C(=O)Nc1cccc(C(F)(F)F)c1)C1CCCO1` (stereo unspecified) displayed a z-score of 0.439.

`CCCOc1ccc(C(=O)N2CCCC2)cc1OC` yielded a z-score of -0.411.

With `CCOC(=O)/C(=N\Nc1cc(C(F)(F)F)ccc1Cl)N(CC)CC`, the z-score is -0.0824.

Consider `Cc1cccc(C)c1NC1=NC(=S)N(c2ccccc2)C12CCOC(C)(C)C2` (stereo unspecified), for which the z-score was 0.847.

As to `Cc1cccc(NC(=O)CSc2nnc(C)n2Cc2ccccc2)c1`, the z-score is 0.163.

Compound `CCOc1ccc(C(=O)NN2C(=O)C3C4C=CC(O4)C3C2=O)cc1` (stereo unspecified) showed a z-score of -0.182.

`O=C(CSc1ncn[nH]1)NCCCc1ccccc1` had a z-score of 0.695.

In turn, `Oc1ccc(C(c2nnnn2C2CCCC2)N2CCc3ccccc3C2)cc1` (stereo unspecified) displayed a z-score of -1.22.

For the compound `CC(C)(C)C(=O)C(Cc1ccccc1Cl)n1cncn1` (stereo unspecified), the z-score was determined as 0.56.

Regarding `CCc1ccc(NC(=O)COC(=O)CN2C(=O)COc3ccccc32)cc1`, the z-score worked out at 0.0972.

`CSc1ccc(/C=C(\C#N)C(=O)Nc2cccc(C)c2)cc1`: the z-score was -0.114.

The compound `Cc1cc(C)cc(NC(=O)N2CCCC2C(=O)Nc2ccc(-n3cnnn3)c(C)c2)c1` (stereo unspecified) yielded a z-score of -0.104.

In turn, `COCCCn1c2nc3ccccc3nc2c2c(=O)n(-c3ccccc3OC)cnc21` yielded a z-score of -0.0755.

Compound `O=C(O)CCN1Cc2ccccc2C1=O` returned a z-score of 1.76.

Regarding `CCOC(=O)c1c(C)[nH]c(C(=O)OCC(=O)NC2CCS(=O)(=O)C2)c1C` (stereo unspecified), the z-score is -0.115.

The compound `CCc1c(C(=O)Nc2ccc(S(=O)(=O)N3CCOCC3)cc2)csc1C` registered a z-score of -0.0949.

Consider `CS(=O)(=O)N(CC(=O)N1CCN(Cc2ccccc2)CC1)c1ccc2c(c1)OCCO2`, for which the z-score is -0.0915.

The compound `COc1ccc(NC(=S)NCc2cccs2)c(OC)c1` displayed a z-score of 0.102.

The compound `COC(=O)c1oc2ccc(Br)cc2c1NC(=O)CN1CCN(C)CC1` returned a z-score of 2.22.

Take `N#Cc1c2n(c3c(=S)nc[nH]c13)CCCCC2`: the z-score turned out to be 2.2.

`Cc1ccccc1CS(=O)(=O)Cc1ccc(C(=O)NCC2CCCO2)o1` (stereo unspecified) showed a z-score of 0.717.

As to `O=C(Nc1ccc(N2CCOCC2)cc1)C1CCCN(S(=O)(=O)c2cccc(C(F)(F)F)c2)C1` (stereo unspecified), the z-score was 2.63.

Regarding `CCOC(=O)COc1ccc2c(c1)C(=O)CC1(CCCCC1)O2`, the z-score was -0.292.

Compound `CS(=O)(=O)N(CC(=O)NCCSc1ccccn1)c1cccc2ccccc12` came in with a z-score of 0.212.

In turn, `CCCn1c(-c2cccnc2Cl)nc2cc(Cl)c(Cl)cc21` had a z-score of -0.165.

With `CCOc1ccc(OCc2ccc(C(=O)N3CCCC3)o2)cc1`, the z-score was -0.226.

On to `COc1ccccc1C(=O)NNC(=O)c1cccc(F)c1`, for which the z-score was -0.0578.

`CCOc1ccc(NC(=O)N(CCN(C)C)C(C)c2ccncc2)cc1` (stereo unspecified) gave a z-score of -0.191.

In turn, `O=C(CCCn1c(=O)[nH]c2cc(Cl)ccc2c1=O)N1CCN(c2ccc([N+](=O)[O-])cc2)CC1` gave a z-score of -0.143.

Regarding `O=[N+]([O-])c1ccc(/C=N/Nc2nc(N3CCCCC3)nc(N3CCCCC3)n2)o1`, the z-score is -0.175.

Compound `COc1ccc(N2CCN(CC(=O)NC(=O)NCc3ccco3)CC2)cc1` displayed a z-score of -0.015.

`CC1(C)CC(=O)c2c(nc(SCC(=O)Nc3nsc(-c4ccccc4)n3)c(C#N)c2-c2ccccc2)C1` returned a z-score of -0.627.

The compound `COC(=O)c1cscc1NC(C)=O` registered a z-score of 0.0475.
